Some of the results follow. Sequences were assembled here from the parent chain. Values near 0.05 are background.
B1: TEV protease; numbered along this chain (parent)
chain: MGESLFKGPRDYNPISSSICHLTNESDGHTTSLYGIGFGPFIITNKHLFRRNNGTLVVQSLHGVFKVKDTTTLQQHLVDGRDMIIIRMPKDFPPFPQKLKFREPQREERICLVTTNFQTKSMSSMVSDTSCTFPSGDGIFWKHWIQTKDGQCGSPLVSTRDGFIVGIHSASNFTNTNNYFTSVPKNFMELLTNQEAQQWVSGWRLNADSVLWGGHKVFMVKPEEPFQPVKEATQL

Variants of: B1
Experiment: raw area under fraction-flipped curve 0-4 h after induction (AUC4h, not background-subtracted), DNA-recorder readout of cleavage of the substrate (dimensionless); higher = more cleavage of the substrate by the protease variant
Details: temperature: 34 °C; time window: 0-4 h after rhamnose induction
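Further: Bxb1 expression induced with 0.2% (w/v) L-rhamnose at OD600 near 0.5, cultures sampled hourly, flipped fraction per protease–substrate barcode pair counted by paired-end Illumina sequencing.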

Row | Variant | area with substrate ENLYFQC | area with substrate ENLYFQE | area with substrate ENLYFQF | area with substrate ENLYFQG | area with substrate ENLYFQH | area with substrate ENLYFQK | area with substrate ENLYFQL | area with substrate ENLYFQM | area with substrate ENLYFQN | area with substrate ENLYFQR | area with substrate ENLYFQS | area with substrate ENLYFQT | area with substrate ENLYFQV | area with substrate ENLYFQY | area with substrate ENLYFQD | area with substrate ENLYFQI | area with substrate ENLYFQW | area with substrate ENLYFQP | area with substrate ENLYFQQ
1 | T71K | 0.1 | 0.0679 | 0.0791 | 0.0886 | 0.0687 | 0.0663 | 0.0426 | 0.0973 | 0.0886 | 0.0671 | 0.0964 | 0.0566 | 0.0744 | 0.0914 | – | – | – | – | –
2 | T55D | 0.129 | – | – | 0.085 | – | – | 0.0628 | 0.0928 | 0.0786 | 0.0542 | 0.088 | 0.0549 | 0.0331 | – | 0.0565 | 0.0521 | 0.0528 | – | –
3 | F226T | 0.141 | – | 0.0824 | 0.0993 | 0.0744 | 0.079 | 0.0594 | 0.109 | 0.0857 | – | 0.115 | 0.0653 | – | – | – | – | 0.0369 | – | –
4 | V113I | 0.118 | 0.0664 | – | 0.0811 | – | 0.0678 | – | 0.0912 | 0.115 | – | 0.104 | – | 0.0764 | – | 0.0865 | – | 0.0525 | 0.0499 | –
5 | Q234Y | 0.154 | 0.0616 | 0.0498 | 0.0823 | 0.0669 | 0.0629 | 0.0576 | 0.0884 | 0.0715 | 0.0547 | 0.0957 | 0.071 | – | 0.0744 | 0.0579 | 0.0423 | 0.0739 | 0.0682 | –
6 | M125G | 0.118 | – | – | – | 0.104 | – | – | 0.0774 | 0.0768 | 0.0228 | 0.104 | 0.0674 | 0.0726 | 0.077 | 0.0824 | – | – | – | –
7 | C152N | 0.0963 | – | 0.0642 | 0.0532 | – | – | 0.0603 | 0.0549 | 0.041 | 0.0601 | 0.0573 | 0.0485 | – | 0.0546 | 0.043 | – | 0.0517 | 0.0453 | –
8 | P228K | 0.125 | – | 0.108 | – | – | 0.0543 | 0.0461 | 0.0813 | 0.0739 | – | 0.107 | 0.0619 | 0.0676 | – | 0.101 | – | 0.0823 | – | –
9 | R50M | 0.16 | – | 0.0908 | – | 0.114 | 0.0635 | 0.0498 | 0.121 | 0.115 | 0.0641 | 0.152 | – | – | – | 0.0496 | – | 0.0554 | 0.0763 | –
10 | F140T | 0.0515 | – | – | – | – | 0.0636 | – | 0.0493 | 0.0658 | – | 0.0611 | – | 0.0622 | – | 0.0331 | – | – | – | 0.0883
11 | D91K | 0.0928 | – | – | – | 0.0694 | 0.0615 | 0.0536 | 0.068 | – | 0.0565 | 0.0996 | – | – | 0.0786 | – | – | – | – | –
12 | C111G | 0.114 | – | – | – | – | – | 0.0339 | – | 0.0509 | 0.0568 | 0.0969 | 0.0595 | – | 0.0848 | 0.0817 | 0.0491 | – | – | –
13 | G150D | 0.0596 | – | – | 0.0602 | – | – | – | 0.0644 | 0.0676 | 0.0557 | 0.0618 | 0.0439 | – | – | 0.0558 | 0.051 | – | – | –
14 | V165W | 0.0514 | – | – | – | – | 0.0495 | 0.0498 | 0.0635 | – | 0.047 | 0.0515 | 0.0434 | – | – | – | – | 0.0521 | – | –
15 | S169P | 0.0589 | 0.0644 | – | 0.0632 | 0.0695 | 0.0661 | 0.0556 | – | 0.0552 | 0.0578 | 0.0582 | 0.0517 | 0.0563 | 0.0554 | – | 0.0613 | – | 0.0324 | 0.057
16 | L61P | 0.122 | 0.0677 | – | 0.101 | 0.0785 | 0.0624 | 0.0637 | 0.0736 | 0.0573 | 0.0531 | 0.0997 | 0.0497 | – | 0.082 | 0.0646 | 0.0545 | 0.0602 | 0.0428 | –
17 | K230Y | 0.112 | 0.0813 | – | 0.0929 | 0.0511 | 0.0645 | 0.0507 | 0.0875 | – | – | 0.0926 | 0.0717 | 0.0605 | – | 0.0697 | 0.0423 | 0.074 | 0.0569 | 0.0652
18 | F95K | 0.0613 | – | – | 0.0663 | – | 0.053 | – | – | – | – | 0.0655 | 0.0512 | – | – | 0.062 | 0.0468 | 0.0527 | 0.0477 | –
19 | T115A | 0.12 | – | 0.0766 | – | – | 0.0494 | – | 0.0869 | – | 0.0615 | 0.0816 | – | – | – | 0.0751 | 0.0587 | 0.0516 | – | –
20 | S154Y | 0.131 | – | – | – | – | – | 0.0674 | 0.098 | – | 0.0569 | 0.0969 | 0.0777 | 0.0604 | – | – | – | 0.0622 | 0.0644 | –
21 | S171Q | 0.0761 | – | – | 0.0613 | 0.0633 | 0.0598 | – | 0.0627 | 0.0561 | – | 0.0721 | 0.0534 | – | – | – | – | 0.0631 | 0.0469 | –
22 | L211Y | 0.112 | – | – | 0.123 | 0.0727 | 0.0658 | 0.0699 | – | 0.073 | 0.0552 | 0.105 | 0.0736 | 0.0594 | 0.0764 | – | 0.0462 | 0.0797 | 0.0533 | –
23 | L235K | 0.148 | – | – | 0.149 | – | 0.0596 | 0.0676 | – | – | 0.0607 | 0.117 | 0.068 | 0.0612 | 0.0866 | – | – | 0.06 | – | –
24 | S182I | 0.11 | – | – | 0.0679 | – | 0.0628 | – | 0.0668 | 0.0598 | – | 0.0885 | 0.0493 | – | – | 0.0643 | – | 0.0591 | – | 0.0505
25 | K148V | 0.104 | 0.0566 | – | 0.091 | 0.0653 | 0.0766 | 0.0622 | 0.0647 | 0.0523 | 0.0755 | 0.101 | 0.0627 | – | – | 0.0653 | 0.067 | – | 0.0563 | –
26 | G153K | 0.0464 | – | – | – | – | – | 0.0595 | 0.0673 | 0.0345 | – | 0.0546 | – | – | – | 0.0492 | – | 0.0411 | – | –
27 | F180K | 0.0533 | 0.0582 | – | 0.0521 | – | 0.0601 | 0.0305 | 0.0545 | 0.0516 | – | 0.0563 | 0.0573 | 0.0602 | 0.0548 | 0.055 | – | 0.0595 | – | –
28 | Q105S | 0.139 | – | – | 0.121 | 0.0662 | – | 0.0573 | 0.0873 | – | 0.0411 | 0.101 | 0.0692 | 0.0538 | – | – | 0.0555 | 0.0547 | 0.0591 | –
29 | R102P | 0.0593 | – | – | 0.0515 | 0.0624 | – | 0.0496 | 0.0394 | 0.0437 | – | 0.0548 | – | 0.0448 | 0.0458 | 0.0423 | 0.04 | – | 0.0429 | –
30 | D149L | 0.0898 | – | 0.053 | 0.0956 | – | 0.0637 | 0.0589 | – | – | 0.0604 | 0.0816 | 0.0562 | 0.0593 | 0.0642 | – | 0.0609 | 0.0475 | – | 0.0548

— the supplement of paper PMC12217912
